The source of these data is patent US8841421B2, “S100A9 interaction screening method” (Active Biotech, AB, priority 2007, dated 2014).

In assay [1] the target is T1, human S100A9 (Homo sapiens, UniProt P06702).
T1 construct: made in house; host or cells: E. coli
T1 sequence (P06702 1-114): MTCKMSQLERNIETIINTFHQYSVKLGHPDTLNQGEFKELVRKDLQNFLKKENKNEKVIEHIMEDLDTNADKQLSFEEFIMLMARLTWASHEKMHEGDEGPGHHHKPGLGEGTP
Kind of assay: Biacore direct binding of S100 proteins to immobilized anti-S100A9 mAb 43/8. How it is done: The S100 proteins were injected at 100 nM concentration (based on the homo- or hetero-dimeric molecular weight) for 3 min at a flow rate of 30 μl/min in sample buffer (HBS-P buffer containing 1 mM Ca^2+ and 20 μM Zn^2+) (1; association phase) followed by injection of running buffer (same as sample buffer) at (2; dissociation phase). […] Sensorgrams from top to bottom represent injection of 400, 200 and 100 nM S100A9 for 2 min at 30 μl/min in the presence or absence of 1 mM Ca^2+ and 20 μM Zn^2+ in HBS-P and after injection of sample buffer without S100A9 (NSB). Responses at late association phase were plotted versus concentration of S100A9. Data was fit to a one-site hyperbola model in GraphPad
Prism yielding a more than 10-fold higher maximum response in the presence of calcium and zinc (4.9 and 0.46×10^3 RU, respectively).
Assays were performed using the anti-S100A9 mAb 43/8 coated on a CM5 chip at high density (3000 RU) using standard amine coupling. The S100A8 and S100A9 proteins were injected at 100 nM concentration (based on the homo- or hetero-dimeric molecular weight) for 3 min at a flow rate of 30 μl/min in sample buffer (HBS-P buffer containing 1 mM Ca^2+and 20 μM Zn^2+) (1; association phase) followed by injection of running buffer (same as sample buffer) at (2; dissociation phase). […] The binding of the S100A8 and S100A9 proteins to the anti-S100A9 mAb 43/8 was dependent on the metal ions Zn^2+ and Ca^2+. Binding was assayed in absence and presence of 1 mM Ca^2+and 20 μM Zn^2+. It was shown that the presence of both these metal ions were required for binding to the anti-S100A9 mAb 43/8. Responses were calculated at late association phase in the absence or presence of 1 mM Ca^2+ and 20 μM Zn^2+in HBS-P. The other conditions were as stated above.
Various S100 proteins were assayed for binding to immobilized anti-S100A9 mAb 43/8 at 100 nM and in the presence of Ca^2+ and Zn^2+ by BIACORE™ direct binding assay. […] The anti-S100A9 antibody show, in addition to reactivity towards the human S100A8/S100A9 complex, human S100A12 and the murine S100A8/S100A9 complex, only weak or no reactivity for the other assayed human and murine S100 proteins.
Samples were injected for 2 min at 30 μl/min over amine coupled anti-S100A9 mAb 43/8 at a density of ˜3,000 RU. Responses at late association phase (t˜175 s) were calculated using the steady-state affinity model in BIAevaluation. S100 proteins to be analyzed were applied on Fast Protein Desalting Columns to obtain a stock solution of 10 μM protein in HBS-P buffer. […]

Assay [2] concerns the target T1, human S100A9. Kind of assay: Epitope competition: S100A9 pre-incubated with antibody, injected over immobilized mAb 43/8. The assay is classed as binding. The note with it: 100 nM S100A9, antibody 0-400 nM. How it is done:
The assay was performed by coating human anti-S100A9 mAb 43/8 on a CM5 chip at high density (3000 RU) using standard amine coupling chemistry. Human S100A9 (100 nM) was pre-incubated for at least one hour with the anti-S100A9 mAb 43/8 or 1C10 at concentrations of the antibody ranging from 0 to 400 nM. S100A9, with or without antibody, was injected for 3 min at a flow rate of 30 μl/min in sample buffer (HBS-P buffer containing 1 mM Ca^2+ and 20 μM Zn^2+) (1; association phase) followed by injection of sample buffer (2; dissociation phase).
The anti-S100A9 mAb 43/8 recognizes an epitope different to that of the 1C10 anti-human S100A9 antibody. The blocking of S100A9 binding to immobilized anti-S100A9 antibody in the presence of Ca^2+ and Zn^2+ by the anti-S100A9 antibodies in solution was measured by BIACORE™ direct binding assay. S100A9, pre-incubated either with anti-S100A9 antibody 43/8 or 1C10, was injected over immobilized anti-S100A9 antibody 43/8.
Human S100A9, at a concentration of 100 nM, was pre-incubated for at least one hour with either antibody 43/8 or 1C10 in the concentration range 0-400 nM in sample buffer (HBS-P buffer containing 1 mM Ca^2+ and 20 μM Zn^2+). Incubated samples were then injected for 3 min at a flow rate of 30 μl/min (1; association phase) followed by injection of sample buffer (2; dissociation phase). Responses were calculated at late association phase. […]

Assay [3] relates to human monocytes. Put plainly: FACS staining of human PBMCs. The assay is classed as cell-based. To be noted: 30 min at 4° C. How it is done:
Human Peripheral Blood Mononuclear Cells (PBMCs) were incubated with the anti-S100A9 mAb 43/8 antibody, the anti S100A8/A9 antibody 27E10 or an isotype control antibody for 30 min at 4° C. Cell-associated fluorescence signals were measured by using a FACScan flow cytofluorometer.

In assay [4] the test system is monocytes from human peripheral blood. Put plainly: TNFα production in human peripheral blood monocytes. Format: cell-based. The note with it: 10 μg/ml; 24 hours. How it is done: FIG. 21 show TNFα production in peripheral Blood Mononuclear Cells after stimulation with beads coated with the anti-S100A9 mAb 43/8. Freshly prepared monocytes from human peripheral blood was incubated with 10 μg/m1 anti-S100A9 mAb 43/8 for 24 hours. As a control, cells were incubated with medium alone (negative control), 10 μg/ml of an isotype matched antibody (negative control) or 0.5 μg/ml lipopolysaccharide (LPS) as a positive control.
To test whether the anti-S100A9 mAb 43/8 had functional properties freshly prepared monocytes from human peripheral blood was incubated with 10 μg/m143/8 for 24 hours. As a control, cells were incubated with medium alone (negative control), 10 μg/ml of an isotype matched antibody (negative control) or 0.5 μg/ml lipopolysaccharide (LPS) as a positive control.

For assay [5], the system named is LNCaP cells. Put plainly: NFκB reporter gene assay in LNCaP cells. Format: cell-based, human. The note with it: 4 h at 37° C.; 10 μM Zn2+. Here is the method: FIG. 22 show NFκB reporter gene activity in human prostate cell line LNCaP cells after stimulation with the anti-S100A9 mAb 43/8. The anti-S100A9 mAb 43/8 induced expression of an NFκB reporter gene transfected (pLR446) into the LNCaP cells. Triplicate cell cultures with 10×10^4 cells (96 well plate) were incubated for 4h at 37° C. in 100 μl RPMI culture medium supplemented with 10% FCS and 10 μM Zn^2+, before the luminescence was measured (Steadylite HTS; Perkin Elmer). PMA (1.5 ng/ml) was used as a positive control and as a negative isotype control mouse IgG1 was used.
The human prostate cancer cell line LNCaP express RAGE and one of its known protein ligands S100A9. The anti-S100A9 mAb 43/8 induced expression of an NFκB reporter gene transfected (pLR446) into the LNCaP cells. Triplicate cell cultures with 10×10^4 cells (96 well plate) were incubated for 4 h at 37° C. in 100 μl RPMI culture medium supplemented with 10% FCS and 10 μM Zn^2+, before the luminescence was measured (Steadylite HTS; Perkin Elmer). PMA (1.5 ng/ml) was used as a positive control and as a negative isotype control mouse IgG1 was used.

Entries after “also recorded” stand apart in the source; their conditions may differ.

B1: anti-S100A9 mAb 43/8: mouse monoclonal anti-S100A9 antibody; variable chains SEQ ID NO 18 and 20; hybridoma ECACC 13021301 (antibody, listed as Mus musculus, V domains shown)
VL: ASLAVSLGQRATISCRASESVDIYGISFMNWFQLKPGQPPKLLIYAASKQGSGVPARFSGSGSGTDFSLNIHSMEEDDTAMYFCQQSKEVPRTFGGGTKLEIKRADAAPT
VH: PELVKSGASVKISCKASGYSFTDYNINWVKQSNGKSLEWIGLINPNYGTTFYNQKFKGKATLTVDQSSSTAYMQLNSLTSEDSAVYYCARETLLLRYFDYWGQGTTLTVSSAKTTPPSVY
notes: mouse monoclonal anti-S100A9 antibody; hybridoma ECACC 13021301
Turning to B1, the “maximum response with calcium and zinc versus without” value in assay [1] is reported as “more than 10 fold”. For the same molecule, in assay [1] (100 nM S100 proteins, Ca2+ and Zn2+ present), the “binding and specificity for S100 proteins (in words)” value is “Binding was demonstrated for the human and murine proteins, S100A8, S100A9 and the S100A8/S100A9 complex; also recorded: Specificity for human S100A9”. The “maximum response of human S100A9 binding to immobilized mAb 43/8” value is reported as 0.46 ×10^3 RU in assay [1] (absence of Ca2+ and Zn2+); 4.9 ×10^3 RU in assay [1] (presence of 1 mM Ca2+ and 20 μM Zn2+). Moreover, the “inhibition of S100A9 binding to immobilized 43/8 compared with antibody 1C10” value in assay [2] is listed as “At least a ten-fold difference in inhibition”; in assay [2] (listed as antibody 43/8) it was “more than ten-fold higher inhibition”. Further, in assay [3], the “interaction with the surface of human monocytes” value is given as “interact with the surface of human monocytes but with lower efficiency than the 27E10 antibody; also recorded: interact with the surface of human monocytes but with lower efficiency than the 27E10 anti-body”. Moreover, in assay [4], the TNFα production result is reported as “induced a robust TNFα production”. Besides, the “NFκB reporter gene activity” value in assay [5] is “induced NFκB reporter gene activity in a dose dependent way”.
